# Source: the supplement of paper PMC11417369
# This is one part of the list.
# Tested on: PfHDP1 homeodomain (GST-tagged)
# Test: gcPBM binding intensity (ln(normalized median fluorescence intensity)); higher = stronger DNA binding
# In short: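 Probes on an Agilent 4 × 180k array were primer-extended, double-stranded and 36 bp long, taken from intergenic genomic regions, with negative controls added. GST-tagged P. falciparum DNA-binding domains from E. coli, about 25 μg on average, were applied to the array for 1 h in 1× PBS containing 1% milk, 0.2 mg/ml BSA, 0.5% salmon testes DNA and 0.03% Triton X-100. Binding intensity, obtained after Alexa488 anti-GST antibody detection and a 488 nm scan, is the highest Masliner-normalised natural-log median intensity across replicate spots of either probe orientation.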
row,Sequence,gcPBM binding intensity (ln)
1,ATTCTTGTTATATAAGGTACAGAACAAAATATAAAA [XGTACX_site5510],6.59
2,TGCATTTTACTTGTTACACACATATAAAATTAACCA [CACACA_site7387],6.57
3,TTTTTTTTTTTTTTAACACACATATAAATATTTTTC [CACACA_site6985],6.52
4,TACAAGTATAAATAAGCACACATGTGTATATGTACA [CACACA_site7911],7.13
5,TTAGAAGGGATTAAAGTGCAAAATAGGATTAGAGTA,9.49
6,TCTTATTTAATTAAACAAAAGAAAAAGAAAGAAAAG [CACACA_negctrl_site1569],6.44
7,GACAAATTAATCGATTGTACACAATTTGTTTCGTTG [XGTACX_site35],6.7
8,TTTTTTTTTTTTTGTACATGCAAATATTATGAACAC [TGCATGCA_site571],6.67
9,AACACATACATATATGCACACATTTTATTCCATTAT [CACACA_site2834],10.1
10,TTCACATATATATAACGTACATTATTATTATTCTGA [XGTACX_site6006],6.62
11,TTTTTTTTTCCTTCTTGTACATATTATATATACATA [XGTACX_site5988],6.8
12,TGGAACGTAATAAAATGTACATACGTTTTTCATATG [XGTACX_site6229],6.27
13,AATGAAATAATACAATGTACGTTAAAAAAAAATAAA [XGTACX_site7928],6.75
14,GTATTATTTTATGATGCATGTGTATTTCATATATGC [TGCATGCA_site660],6.46
15,TAATATCAAACCTATAGTACATAAGGTATAAAAAAG [XGTACX_site3533],6.6
16,AATATAACTTTTTGCACACTTAATTTTTTTTTTTAA [CACACA_site3365],10.6
17,TAACAAAAAGCACTTAGTACATATATATATATATAT [XGTACX_site1099],9.14
18,AGGTAATATACTAAATGTACAGAAAAACGAATTTTT [XGTACX_site2977],6.48
19,TATATTTATTATAACACACACATATTTATATTATAG [CACACA_site6628],6.43
20,TTTCTTTTTAAATATATACACACCGGGTGTACATAT [CACACA_site3345],6.62
21,ATGTTATATTATAAAAGTACATTTTATTTTTATTTA [XGTACX_site4365],6.53
22,TTAATTTATAAAAACACACACAGGTAAAAAGGTGCA [CACACA_site1177],7.21
23,ATTTCCTTTTTCTGTTGTACTCATAAAATAATATGT [XGTACX_site7234],7.39

row,Sequence,gcPBM binding intensity (ln)
1,GTTAAGTGTATATATACACACATATGTAATACATGA [CACACA_site3048],7.22
2,AAAAAAAGTGACTCCTTACACACTTTACATAATTTA [CACACA_site820],6.24
3,TAAAAATATATGTATACACACATATATATATATATA [CACACA_site3951],9.29
4,AATATTGAAATAACGCGTACAAAAAAAAGTTATATT [XGTACX_site6559],6.8
5,TAATTAAAATTATATATTAGAAAAAACATATAAAAC [CACACA_negctrl_site190],6.42
6,ATATGTAGAATAAAAAAAAAAAAAAAAAAAAAAAAT [CACACA_negctrl_site621],6.09
7,TACAGACAGAAACACACACACACGCATAAAAAAAAA [CACACA_site1514],6.81
8,ATTTATTTATTTATATGTACATATATATATATATAT [XGTACX_site339],9.31
9,TAATAATAACCGTTATGTACACAATTTTGTGAACAT [XGTACX_site8053],6.35
10,GATGGAATCTAATTTACATGCAGTGATATAATAAAT [TGCATGCA_site1031],6.47
11,ACTTCCTATATTTATGCATGCATTTTATTAAAAAAT [TGCATGCA_site747],7.8
12,ATATATCATGAACCTTGTACGTATATATATATATAT [XGTACX_site239],9.25
13,TATACAATATTTATAACACACATATTTATATAAACT [CACACA_site6932],6.49
14,ACTAAACAATATGTATGTACATATTTTACATATAAT [XGTACX_site3318],6.62
15,AGAACATTTTCTCAGTGTACTTATATATTTGACATA [XGTACX_site6541],6.44
16,TTATTAGAAAAATGCACACCAAAAAAAAAAAAAAAA [CACACA_site2522],8.93
17,ATACATATACACATATGTACATATGAAAAGAAAAAT [XGTACX_site6445],7.15
18,TACATATATATAAATACACACACACCCACCTTATAA [CACACA_site9346],6.99
19,TTTTTATTTTATAATATATTCCTTTTCCTTTCTTTC [CACACA_negctrl_site245],6.29
20,TATATATATTGTGTATGTACATATATATAAATATTG [XGTACX_site433],6.68
21,TTCATTTGAAAACTGTGTACTTAAAAATATACATAT [XGTACX_site176],6.11
22,AATATAATATAATGCACACATAAACAAAAAAAAAAT [CACACA_site1304],10.5
23,ATATATTTAAATAAATGTACAAATCATAAATTCAAG [XGTACX_site1417],6.07

row,Sequence,gcPBM binding intensity (ln)
1,AAGATAACAAGTAATCAATCTAATTATTAATTATAT [CACACA_negctrl_site1713],5.92
2,AAAAATATGTGATAATGTACTTTTCATTTTTATTTT [XGTACX_site8544],6.09
3,AAAAGAAAAATGTCATATGATATCATATATTTTATA [GTGCAC_negctrl_site185],6.26
4,ATATACATATATATATGTACTGAAAAGAAAAGAATT [XGTACX_site150],6.69
5,CATAAATACATACATACACACATATTTATATTTATA [CACACA_site7071],6.76
6,ATAATTATATATATATGTACATATTATATATATATA [XGTACX_site4526],8.45
7,TGTTTTTAAATTTAAATCAAAAAATAAAATAAAATA [GTGCAC_negctrl_site355],6.32
8,TACTTTTATATAGAAAGTACATACAATTCATAGAAT [XGTACX_site2182],6.18
9,TTTTTTTTTTTTTTGTGTACATATAATGCACATTAT [XGTACX_site6505],10.1
10,TATAAAAAGCATAACACACACATGTCAATATAAATA [CACACA_site6648],6.7
11,TATTGAAACCCACACGAACACACGTATTTCATAAAC [CACACA_site251],6.51
12,ATGGACATTTTATAAATCACAATGGATATTTTATAA [CACACA_negctrl_site1830],6.11
13,TACATCATCTATAAGGTGCATTTTAGTTCTATTAAA,8.99
14,TATATATTTTATTATTGTACGAATTATTTATTTTAC [XGTACX_site8105],6.25
15,TTTTTTCTAATATCTTTGCCTTTTTCTTTATTTATT [CACACA_negctrl_site1053],6.77
16,TATACTCATTTTTATACACACTTGTTTTATAAAACG [CACACA_site4561],7.16
17,ATATATATATATATATGTACATATGTATGTGTTTGT [XGTACX_site397],9.35
18,CTATATGTATAAAGTTGTACAGTTTTTCAAAGTTAA [XGTACX_site6652],6.34
19,AAATTTATTATGAACATACACACAAAAAAAAAAAGT [CACACA_site2053],7.02
20,AAAATAACAAAATAAAGTACTTTTAAAAGATATAAT [XGTACX_site7632],6.59
21,AAAAGTAACAAAGCTACACACATTTAAATAAACATA [CACACA_site1421],6.64
22,TTTTTAATTCAAACAATAATATGTTATATTTCAAAT [TGCATGCA_negctrl_site27],6.22
23,GATTTTCTAATTTCTACACACATATAAGAATATTCA [CACACA_site7340],6.36

row,Sequence,gcPBM binding intensity (ln)
1,TGTATAAAACATGGGTGTACTGAACTCAATCATATA [XGTACX_site1215],6.52
2,GTTTTACACAGACATGCATGTGAAAATTTGATGGTA [TGCATGCA_site308],6.64
3,TATCATCATGTATGTACACACATACCTATATTATGT [CACACA_site6768],6.71
4,TTTATTTCTATATTTACATGCAAAGGGTTAGTTATA [TGCATGCA_site983],6.58
5,AAGAAAAAGAATAGACGGACAACTAATATAAAATAT [XGTACX_site7905],6.53
6,TTTTTTTTTTTCATGTGTACATATATTTTCACTTTA [XGTACX_site4475],6.64
7,GATCTTTTTTTTCTTACTTTACAATTTTTTTTTTAC [XGTACX_negctrl_site101],6.94
8,ATTATATAAATTATATGTACGTATTTTTTTTTTTTT [XGTACX_site1908],6.2
9,AATTAAATTACTTATACACACATAAAATGTCTGTAT [CACACA_site997],6.71
10,AAATTATGAACATATTGTACATATATATATATATAT [XGTACX_site8269],9.41
11,CATGTATGTACCATGGTGCAACAATATTTTTAACAA [GTGCAC_site9597],8.57
12,TCATTGTTAAGCTGAAGTACTTATAATTACATCGAG [XGTACX_site6340],6.45
13,AATATATTTTAATATACACACATATCTGCTCTTTAA [CACACA_site6130],6.48
14,TAAAATTATATAAAGGAACACACATTTTATTTTATT [CACACA_site8423],6.28
15,TATTAGCATGTTATTACACACAATATAAAATATATA [CACACA_site1401],6.65
16,TGTCAATCATATAAATGTACATTTTAAATGAGGTGT [XGTACX_site7391],6.93
17,CAAATAAAAATAAGGAGTACAATTAAAAAAGGAAGG [XGTACX_site4366],6.73
18,GAAAAGAAAAATAAACGTACATAAATATTAACATTA [XGTACX_site8213],5.83
19,AAAATAAAAAAGTGTACACATATTAAAATGTATTTA [CACACA_site4424],6.56
20,TATTTATTGTGATACTACTATTATTTTATGATTAAA [CACACA_negctrl_site284],6.23
